According to the supplement of paper PMC8728848:
This is one part of the list.

Tests used:
Test in all cases: glycan array binding signal (z-score within array); higher = stronger binding
Settings in all cases: glycan notation: IUPAC condensed, linker removed
Gal3S(b1-4)Glc = biological target: Gal3S(b1-4)Glc
Outline: (§1)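 Glycan array data were curated from 3228 arrays in the Consortium for Functional Glycomics database and kept only where the protein sequence was available. Glycan names were converted to IUPAC-condensed notation, and columns mapping to the same glycan were averaged. The binding signal is a within-array Z-score, averaged across arrays of the same protein sequence at different concentrations or buffers and across linkers. Negative Z-scores can be read as non-binding.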

Gal3S(b1-4)Glc6S = biological target: Gal3S(b1-4)Glc6S
Outline: as §1

Gal3S(b1-4)GlcNAc = biological target: Gal3S(b1-4)GlcNAc
Outline: as §1

[1] = biological target: Gal3S(b1-4)[Fuc(a1-3)]Glc6S
Outline: as §1

[2] = biological target: Gal3S(b1-4)[Fuc(a1-3)]GlcNAc
Outline: as §1

[3] = biological target: Gal3S(b1-4)[Fuc(a1-3)]GlcNAc6S
Outline: as §1

Gal3S4S(b1-4)GlcNAc = biological target: Gal3S4S(b1-4)GlcNAc
Outline: as §1

Gal3S6S(b1-4)GlcNAc = biological target: Gal3S6S(b1-4)GlcNAc
Outline: as §1

Gal3S6S(b1-4)GlcNAc6S = biological target: Gal3S6S(b1-4)GlcNAc6S
Outline: as §1

Gal4S(b1-4)GlcNAc = biological target: Gal4S(b1-4)GlcNAc
Outline: as §1

Gal4S6S(b1-4)GlcNAc = biological target: Gal4S6S(b1-4)GlcNAc
Outline: as §1

Gal6P(b1-4)GlcNAc = biological target: Gal6P(b1-4)GlcNAc
Outline: as §1

Gal6S(b1-3)GlcNAc = biological target: Gal6S(b1-3)GlcNAc
Outline: as §1

Gal6S(b1-3)GlcNAc6S = biological target: Gal6S(b1-3)GlcNAc6S
Outline: as §1

Gal6S(b1-4)Glc = biological target: Gal6S(b1-4)Glc
Outline: as §1

Gal6S(b1-4)Glc6S = biological target: Gal6S(b1-4)Glc6S
Outline: as §1

Gal6S(b1-4)GlcNAc = biological target: Gal6S(b1-4)GlcNAc
Outline: as §1

Gal6S(b1-4)GlcNAc6S = biological target: Gal6S(b1-4)GlcNAc6S
Outline: as §1

GalNAc(a1-3)Gal = biological target: GalNAc(a1-3)Gal
Outline: as §1

GalNAc(a1-3)GalNAc = biological target: GalNAc(a1-3)GalNAc
Outline: as §1

[4] = biological target: GalNAc(a1-3)GalNAc(b1-3)Gal(a1-4)Gal(b1-4)Glc
Outline: as §1

[5] = biological target: GalNAc(a1-3)GalNAc(b1-3)Gal(a1-4)Gal(b1-4)GlcNAc
Outline: as §1

GalNAc(b1-3)Gal = biological target: GalNAc(b1-3)Gal
Outline: as §1

[6] = biological target: GalNAc(b1-3)Gal(a1-4)Gal(b1-4)GlcNAc
Outline: as §1

[7] = biological target: GalNAc(b1-3)Gal(a1-4)Gal(b1-4)GlcNAc(b1-3)Gal(b1-4)Glc
Outline: as §1

[8] = biological target: GalNAc(b1-3)Gal(a1-6)Gal(b1-4)Glc
Outline: as §1

GalNAc(b1-3)GalNAc = biological target: GalNAc(b1-3)GalNAc
Outline: as §1

GalNAc(b1-3)GlcNAc = biological target: GalNAc(b1-3)GlcNAc
Outline: as §1

GalNAc(b1-4)Gal(b1-4)Glc = biological target: GalNAc(b1-4)Gal(b1-4)Glc
Outline: as §1

GalNAc(b1-4)GlcNAc = biological target: GalNAc(b1-4)GlcNAc
Outline: as §1

[9] = biological target: GalNAc(b1-4)GlcNAc(b1-2)Man
Outline: as §1

[10] = biological target: GalNAc(b1-4)GlcNAc(b1-2)Man(a1-3)[GalNAc(b1-4)GlcNAc(b1-2)Man(a1-6)]Man(b1-4)GlcNAc(b1-4)GlcNAc
Outline: as §1

[11] = biological target: GalNAc(b1-4)GlcNAc(b1-3)GalNAc(b1-4)GlcNAc
Outline: as §1

GalNAc(b1-4)GlcNAc6S = biological target: GalNAc(b1-4)GlcNAc6S
Outline: as §1

GalNAc(b1-6)GalNAc = biological target: GalNAc(b1-6)GalNAc
Outline: as §1

GalNAc3S(b1-4)GlcNAc = biological target: GalNAc3S(b1-4)GlcNAc
Outline: as §1

GalNAc3S(b1-4)GlcNAc3S = biological target: GalNAc3S(b1-4)GlcNAc3S
Outline: as §1

B1: PX14375F-bfa-539-21-539 (Bacteroides fragilis) (protein)
chain: EDFLQKDPPSSPSQSVFWQKKSDFESALAGTYSVMYSGVFSQIMPCLDGLTDNAIVQHSEGTYGWAKTIAQGDLTPNQGGFVTDIYGNCYKGIARVHILMEQLDQYTGSDISADEKKFMLAQCKALRGYFYSWLYQCYKEVPVVTQSLDLNTMYQPKATRAEVLNRVMTDYDEAISELPDKLYSDSQTSGRFTVSAVKALKARILLFDAYDSNGKAISSKMEEVLTLLQSIKGYSLAARVRDNFISEKQLASPEIMFSVRFLRPNLTHSMDLYYGAWAVLDPTRNMVDAFECTDGKPWGESPLTVRPDESILYGNDDALKKAERAKMFMNRDRRLYESVNHSMMANFVDDGFKDEEVQVNESNNKGPTGFSALKYVQPTDVTPGYSTVSDADIVVLRYAHVLLMIAEAENEAHGATTTALNAINEVRTRSGQPAIEAGISQDDLRERIRNEWRIETCFEGLRYFQLKRWKLMDKRVNGVEDPAYPGYIKVYKPAFEFFPIPQSEIDKAGGVLKQDPAYE
glycan array binding signal (z-score) (Gal3S(b1-4)Glc): 0.219 | glycan array binding signal (z-score) (Gal3S(b1-4)Glc6S): -0.338 | glycan array binding signal (z-score) (Gal3S(b1-4)GlcNAc): -0.507 | glycan array binding signal (z-score) [1]: 0.169 | glycan array binding signal (z-score) [2]: 0.75 | glycan array binding signal (z-score) [3]: -0.338 | glycan array binding signal (z-score) (Gal3S4S(b1-4)GlcNAc): -0.658 | glycan array binding signal (z-score) (Gal3S6S(b1-4)GlcNAc): 1 | glycan array binding signal (z-score) (Gal3S6S(b1-4)GlcNAc6S): 0.32 | glycan array binding signal (z-score) (Gal4S(b1-4)GlcNAc): -0.679 | glycan array binding signal (z-score) (Gal4S6S(b1-4)GlcNAc): 0.029 | glycan array binding signal (z-score) (Gal6P(b1-4)GlcNAc): -0.412 | glycan array binding signal (z-score) (Gal6S(b1-3)GlcNAc): -0.321 | glycan array binding signal (z-score) (Gal6S(b1-3)GlcNAc6S): -0.049 | glycan array binding signal (z-score) (Gal6S(b1-4)Glc): -0.006 | glycan array binding signal (z-score) (Gal6S(b1-4)Glc6S): -0.625 | glycan array binding signal (z-score) (Gal6S(b1-4)GlcNAc): -0.094 | glycan array binding signal (z-score) (Gal6S(b1-4)GlcNAc6S): -0.122 | glycan array binding signal (z-score) (GalNAc(a1-3)Gal): -0.352 | glycan array binding signal (z-score) (GalNAc(a1-3)GalNAc): -0.028 | glycan array binding signal (z-score) [4]: -0.919 | glycan array binding signal (z-score) [5]: -0.701 | glycan array binding signal (z-score) (GalNAc(b1-3)Gal): -0.468 | glycan array binding signal (z-score) [6]: 1.15 | glycan array binding signal (z-score) [7]: -0.311 | glycan array binding signal (z-score) [8]: -0.82 | glycan array binding signal (z-score) (GalNAc(b1-3)GalNAc): -0.19 | glycan array binding signal (z-score) (GalNAc(b1-3)GlcNAc): -0.293 | glycan array binding signal (z-score) (GalNAc(b1-4)Gal(b1-4)Glc): 0.504 | glycan array binding signal (z-score) (GalNAc(b1-4)GlcNAc): 0.714 | glycan array binding signal (z-score) [9]: -0.578 | glycan array binding signal (z-score) [10]: 0.735 | glycan array binding signal (z-score) [11]: 0.233 | glycan array binding signal (z-score) (GalNAc(b1-4)GlcNAc6S): -0.708 | glycan array binding signal (z-score) (GalNAc(b1-6)GalNAc): 0.798 | glycan array binding signal (z-score) (GalNAc3S(b1-4)GlcNAc): -0.767 | glycan array binding signal (z-score) (GalNAc3S(b1-4)GlcNAc3S): 0.373
